The values below come from US20230257424A1 (NATIONAL RESEARCH COUNCIL OF CANADA, published 2023).

The target of the assay is T1, naturally produced Aß aggregates (amyloid deposits) in AD-Tg mouse brain (human, UniProt P05067 part only).
T1 construct: Target in brain sections or in the living brain; aggregated deposits of unstated composition; also called Aß deposits; endogenous Aß deposits
Kind of assay: immunohistochemistry on AD-transgenic (APP/PS1) mouse brain sections, detection with anti-FC5-HRP. On the procedure:
Immunohistochemistry was carried out as described in Example 3. Brain sections from AD-transgenic mice were incubated with FC5(H3)-hFc1X7-ABP (ABP, SEQ ID NO: 36) and the bound fusion molecule was visualized with HRP-conjugated FC5-specific antibody. As a negative control, sections were incubated with either no construct, or FC5-hFc construct without fused ABP. Briefly, Formalin-fixed 40 μm free-floating sections containing cortex and hippocampus from APP/PS1 transgenic mouse were subjected to antigen retrieval in 10 mM sodium citrate buffer (pH 9) at 80° C. for 30 minutes then cooled to room temperature. Sections were rinsed in PBS, treated with 3% H₂O₂ in PBS for 30 minutes to block endogenous peroxidase, then rinsed again. Following a one hour incubation in Dako serum free protein block containing 0.3% triton X-100, sections were incubated with FC5(H3)-hFc1x7-ABP or the molar equivalent of FC5-hFc1x7 in Dako diluent containing 0.3% triton X-100 for 90 minutes at room temperature. After thoroughly rinsing in PBS, the sections were incubated with anti-FC5-HRP in Dako diluent for 60 minutes at room temperature, rinsed again, and then developed using Vector Immpact DAB following the kit directions. […]

T1 sequence (P05067 672-713): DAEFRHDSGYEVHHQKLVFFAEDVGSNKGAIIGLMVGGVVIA

B1: FC5(H3)-hFc1X7 without ABP (Fc fusion)
chain: EVQLVESGGGLVQPGGSLRLSCAASGFKITHYTMGWFRQAPGKGLEFVSRITWGGDNTFYSNSVKGRFTISRDNSKNTVYLQMNSLRAEDTAVYYCAAGSTSTATPLRVDYWGQGTLVTVSSA[skipping human IgG1 Fc with C220S D270G (EU numbers)]
notes: also called FC5-hFc1x7; FC5-hFc construct without fused ABP
Consider B1, for which the binding result was “no binding (tested: molar equivalent of FC5-hFc1x7)”.
